According to the supplement of paper PMC8728848:
The list shows a part of the results.

How the values were obtained:
Experiment in all cases: glycan array binding signal (z-score within array); higher = stronger binding
Conditions in all cases: glycan notation: IUPAC condensed, linker removed
[1] = target: Gal(b1-4)GlcNAc(b1-3)Gal(b1-4)GlcNAc(b1-3)Gal(b1-4)GlcNAc(b1-3)Gal(b1-4)GlcNAc(b1-2)Man(a1-3)[Gal(b1-4)GlcNAc(b1-3)Gal(b1-4)GlcNAc(b1-3)Gal(b1-4)GlcNAc(b1-3)Gal(b1-4)GlcNAc(b1-2)Man(a1-6)]Man(b1-4)GlcNAc(b1-4)[Fuc(a1-6)]GlcNAc
Method in brief: (§1)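 Glycan array data came from 3228 arrays in the Consortium for Functional Glycomics database, and only arrays with an available protein sequence were kept. Glycan names were put into IUPAC-condensed notation, and columns mapping to the same glycan were averaged. The binding signal is a within-array Z-score, averaged across arrays of one protein sequence run at different concentrations or buffers and across linkers. A negative Z-score can be read as non-binding.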

[2] = target: Gal(b1-4)GlcNAc(b1-3)Gal(b1-4)GlcNAc(b1-3)Gal(b1-4)GlcNAc(b1-3)Gal(b1-4)GlcNAc(b1-2)[Gal(b1-4)GlcNAc(b1-3)Gal(b1-4)GlcNAc(b1-3)Gal(b1-4)GlcNAc(b1-3)Gal(b1-4)GlcNAc(b1-6)]Man(a1-6)[Gal(b1-4)GlcNAc(b1-3)Gal(b1-4)GlcNAc(b1-3)Gal(b1-4)GlcNAc(b1-3)Gal(b1-4)GlcNAc(b1-2)Man(a1-3)]Man(b1-4)GlcNAc(b1-4)[Fuc(a1-6)]GlcNAc
Method in brief: as §1

[3] = target: Gal(b1-4)GlcNAc(b1-3)Gal(b1-4)GlcNAc(b1-3)Gal(b1-4)GlcNAc(b1-3)Gal(b1-4)GlcNAc(b1-3)Gal(b1-4)GlcNAc(b1-2)Man(a1-3)[Gal(b1-4)GlcNAc(b1-3)Gal(b1-4)GlcNAc(b1-3)Gal(b1-4)GlcNAc(b1-3)Gal(b1-4)GlcNAc(b1-3)Gal(b1-4)GlcNAc(b1-2)Man(a1-6)]Man(b1-4)GlcNAc(b1-4)GlcNAc
Method in brief: as §1

[4] = target: Gal(b1-4)GlcNAc(b1-3)Gal(b1-4)GlcNAc(b1-3)Gal(b1-4)GlcNAc(b1-3)Gal(b1-4)GlcNAc(b1-3)Gal(b1-4)GlcNAc(b1-2)Man(a1-3)[Gal(b1-4)GlcNAc(b1-3)Gal(b1-4)GlcNAc(b1-3)Gal(b1-4)GlcNAc(b1-3)Gal(b1-4)GlcNAc(b1-3)Gal(b1-4)GlcNAc(b1-2)Man(a1-6)]Man(b1-4)GlcNAc(b1-4)[Fuc(a1-6)]GlcNAc
Method in brief: as §1

[5] = target: Gal(b1-4)GlcNAc(b1-3)Gal(b1-4)GlcNAc(b1-3)Gal(b1-4)GlcNAc(b1-3)Gal(b1-4)GlcNAc(b1-3)Gal(b1-4)GlcNAc(b1-2)[Gal(b1-4)GlcNAc(b1-3)Gal(b1-4)GlcNAc(b1-3)Gal(b1-4)GlcNAc(b1-3)Gal(b1-4)GlcNAc(b1-3)Gal(b1-4)GlcNAc(b1-6)]Man(a1-6)[Gal(b1-4)GlcNAc(b1-3)Gal(b1-4)GlcNAc(b1-3)Gal(b1-4)GlcNAc(b1-3)Gal(b1-4)GlcNAc(b1-3)Gal(b1-4)GlcNAc(b1-2)Man(a1-3)]Man(b1-4)GlcNAc(b1-4)[Fuc(a1-6)]GlcNAc
Method in brief: as §1

[6] = target: Gal(b1-4)GlcNAc(b1-3)Gal(b1-4)GlcNAc(b1-3)Gal(b1-4)GlcNAc(b1-3)Gal(b1-4)GlcNAc(b1-3)Gal(b1-4)GlcNAc(b1-3)Gal(b1-4)GlcNAc(b1-2)Man(a1-3)[Gal(b1-4)GlcNAc(b1-3)Gal(b1-4)GlcNAc(b1-3)Gal(b1-4)GlcNAc(b1-3)Gal(b1-4)GlcNAc(b1-3)Gal(b1-4)GlcNAc(b1-3)Gal(b1-4)GlcNAc(b1-2)Man(a1-6)]Man(b1-4)GlcNAc(b1-4)GlcNAc
Method in brief: as §1

[7] = target: Gal(b1-4)GlcNAc(b1-3)Gal(b1-4)GlcNAc(b1-3)GalNAc
Method in brief: as §1

[8] = target: Gal(b1-4)GlcNAc(b1-3)Gal(b1-4)GlcNAc(b1-3)[Gal(b1-4)GlcNAc(b1-3)Gal(b1-4)GlcNAc(b1-6)]GalNAc
Method in brief: as §1

[9] = target: Gal(b1-4)GlcNAc(b1-3)Gal(b1-4)GlcNAc(b1-6)[Gal(b1-3)]GalNAc
Method in brief: as §1

[10] = target: Gal(b1-4)GlcNAc(b1-3)Gal(b1-4)[Fuc(a1-3)]GlcNAc(b1-3)Gal(b1-4)[Fuc(a1-3)]GlcNAc
Method in brief: as §1

[11] = target: Gal(b1-4)GlcNAc(b1-3)GalNAc
Method in brief: as §1

[12] = target: Gal(b1-4)GlcNAc(b1-3)[Fuc(a1-3)GlcNAc(b1-6)]Gal(b1-4)Glc
Method in brief: as §1

[13] = target: Gal(b1-4)GlcNAc(b1-3)[Gal(b1-4)GlcNAc(b1-6)]Gal(b1-4)GlcNAc
Method in brief: as §1

[14] = target: Gal(b1-4)GlcNAc(b1-3)[GlcNAc(b1-6)]Gal(b1-4)GlcNAc
Method in brief: as §1

[15] = target: Gal(b1-4)GlcNAc(b1-6)Gal(b1-4)GlcNAc
Method in brief: as §1

[16] = target: Gal(b1-4)GlcNAc(b1-6)GalNAc
Method in brief: as §1

[17] = target: Gal(b1-4)GlcNAc(b1-6)[Gal(b1-3)]GalNAc
Method in brief: as §1

[18] = target: Gal(b1-4)GlcNAc(b1-6)[Gal(b1-4)GlcNAc(b1-3)]GalNAc
Method in brief: as §1

Gal(b1-4)GlcNAc6P = target: Gal(b1-4)GlcNAc6P
Method in brief: as §1

Gal(b1-6)Gal = target: Gal(b1-6)Gal
Method in brief: as §1

Gal3S(b1-3)GalNAc = target: Gal3S(b1-3)GalNAc
Method in brief: as §1

Gal3S(b1-3)GlcNAc = target: Gal3S(b1-3)GlcNAc
Method in brief: as §1

[19] = target: Gal3S(b1-3)[Fuc(a1-4)]GlcNAc
Method in brief: as §1

Gal3S(b1-4)Glc = target: Gal3S(b1-4)Glc
Method in brief: as §1

Gal3S(b1-4)Glc6S = target: Gal3S(b1-4)Glc6S
Method in brief: as §1

Gal3S(b1-4)GlcNAc = target: Gal3S(b1-4)GlcNAc
Method in brief: as §1

[20] = target: Gal3S(b1-4)[Fuc(a1-3)]Glc6S
Method in brief: as §1

[21] = target: Gal3S(b1-4)[Fuc(a1-3)]GlcNAc
Method in brief: as §1

[22] = target: Gal3S(b1-4)[Fuc(a1-3)]GlcNAc6S
Method in brief: as §1

Gal3S4S(b1-4)GlcNAc = target: Gal3S4S(b1-4)GlcNAc
Method in brief: as §1

Gal3S6S(b1-4)GlcNAc = target: Gal3S6S(b1-4)GlcNAc
Method in brief: as §1

Gal3S6S(b1-4)GlcNAc6S = target: Gal3S6S(b1-4)GlcNAc6S
Method in brief: as §1

Gal4S(b1-4)GlcNAc = target: Gal4S(b1-4)GlcNAc
Method in brief: as §1

Gal4S6S(b1-4)GlcNAc = target: Gal4S6S(b1-4)GlcNAc
Method in brief: as §1

Gal6P(b1-4)GlcNAc = target: Gal6P(b1-4)GlcNAc
Method in brief: as §1

Gal6S(b1-3)GlcNAc = target: Gal6S(b1-3)GlcNAc
Method in brief: as §1

Gal6S(b1-3)GlcNAc6S = target: Gal6S(b1-3)GlcNAc6S
Method in brief: as §1

Gal6S(b1-4)Glc = target: Gal6S(b1-4)Glc
Method in brief: as §1

B1: PX14375C-bth-509-28-509 (Bacteroides thetaiotaomicron) (protein)
chain: RSPQGQFTEDDNPNALVNGKIYNVYTMMRSFDITAGTPAIAIHYLRSEDSEKGSIPSDGSDVAEMYDDFLYTPTNGLLGSYWGKNYAIIYQCNDILDAIAEKETAGQTETEDIINKGEASFFRAYCYFNLVRAFGEVPLVTYKINDASEANIPKTTADKIYEQIDTDLKTAEESLPETWSTEYTGRLTWGAARSLHARTYMMRSDWDNMYKASTDVINKGLYNLKTPYNEIFTDDGENSGGSIFELQCTATAALPQSDVIGSQFCEVQGVRGAGQWDLGWGWHMATQLMADAYETGDPRKNATLLYFRKTDDEPITPENTNEPYGESPISPAMGAYFNKKAYTDPALRKEYTNKGFWVNIRLIRYSDVVLMAAEAANEKNIPGEAVDYLEMVRARARGTNTNILPKITTNDQGELREAIRHERRVELGLEPDRFYDLVRWGIASEVLHAAGKVNYQDKNALLPLPQSEIDKSKGVLVQNPDY
Which “glycan array binding signal (z-score)” value [1] does the source give for B1 here?
Its value is 0.041.

What about the “glycan array binding signal (z-score)” value [2] of the same binder?
Its value is 2.23.

And the “glycan array binding signal (z-score)” value [3]?
Its value is 3.46.

And the “glycan array binding signal (z-score)” value [4]?
Its value is 0.535.

And the “glycan array binding signal (z-score)” value [5]?
Its value is 0.66.

And the “glycan array binding signal (z-score)” value [6]?
The value was 1.46.

What about the “glycan array binding signal (z-score)” value [7] of the same binder?
Its value is -0.224.

And the “glycan array binding signal (z-score)” value [8]?
Its value is 0.467.

And the “glycan array binding signal (z-score)” value [9]?
The value was 0.36.

And the “glycan array binding signal (z-score)” value [10]?
The value was -0.01.

What about the “glycan array binding signal (z-score)” value [11] of the same binder?
The value was 0.281.

What about the “glycan array binding signal (z-score)” value [12] of the same binder?
Its value is -0.233.

And the “glycan array binding signal (z-score)” value [13]?
The value was -0.178.

And the “glycan array binding signal (z-score)” value [14]?
The value was -0.337.

And the “glycan array binding signal (z-score)” value [15]?
Its value is -0.054.

And the “glycan array binding signal (z-score)” value [16]?
The value was -0.255.

What about the “glycan array binding signal (z-score)” value [17] of the same binder?
The value was -0.389.

And the “glycan array binding signal (z-score)” value [18]?
The value was 0.017.

What about the “glycan array binding signal (z-score)” value (Gal(b1-4)GlcNAc6P) of the same binder?
Its value is 0.035.

And the “glycan array binding signal (z-score)” value (Gal(b1-6)Gal)?
The value was -0.231.

What about the “glycan array binding signal (z-score)” value (Gal3S(b1-3)GalNAc) of the same binder?
Its value is -0.553.

What about the “glycan array binding signal (z-score)” value (Gal3S(b1-3)GlcNAc) of the same binder?
The value was -0.183.

And the “glycan array binding signal (z-score)” value [19]?
Its value is -0.117.

And the “glycan array binding signal (z-score)” value (Gal3S(b1-4)Glc)?
The value was -0.207.

And the “glycan array binding signal (z-score)” value (Gal3S(b1-4)Glc6S)?
The value was -0.242.

And the “glycan array binding signal (z-score)” value (Gal3S(b1-4)GlcNAc)?
The value was -0.113.

What about the “glycan array binding signal (z-score)” value [20] of the same binder?
Its value is 0.039.

And the “glycan array binding signal (z-score)” value [21]?
Its value is -0.345.

And the “glycan array binding signal (z-score)” value [22]?
The value was -0.411.

And the “glycan array binding signal (z-score)” value (Gal3S4S(b1-4)GlcNAc)?
The value was -0.33.

And the “glycan array binding signal (z-score)” value (Gal3S6S(b1-4)GlcNAc)?
The value was -0.181.

What about the “glycan array binding signal (z-score)” value (Gal3S6S(b1-4)GlcNAc6S) of the same binder?
The value was -0.243.

And the “glycan array binding signal (z-score)” value (Gal4S(b1-4)GlcNAc)?
The value was -0.49.

What about the “glycan array binding signal (z-score)” value (Gal4S6S(b1-4)GlcNAc) of the same binder?
Its value is -0.448.

What about the “glycan array binding signal (z-score)” value (Gal6P(b1-4)GlcNAc) of the same binder?
The value was -0.343.

And the “glycan array binding signal (z-score)” value (Gal6S(b1-3)GlcNAc)?
Its value is -0.297.

And the “glycan array binding signal (z-score)” value (Gal6S(b1-3)GlcNAc6S)?
Its value is 0.978.

What about the “glycan array binding signal (z-score)” value (Gal6S(b1-4)Glc) of the same binder?
The value was -0.018.
